# According to article PMC5700166:
# Only a part is listed here, and it is no random draw. The list includes weakly bound sequences.
# Biological target: T1, GST-Nv-NF-kB (Cys allele) (UniProt E5G601)
# T1 sequence: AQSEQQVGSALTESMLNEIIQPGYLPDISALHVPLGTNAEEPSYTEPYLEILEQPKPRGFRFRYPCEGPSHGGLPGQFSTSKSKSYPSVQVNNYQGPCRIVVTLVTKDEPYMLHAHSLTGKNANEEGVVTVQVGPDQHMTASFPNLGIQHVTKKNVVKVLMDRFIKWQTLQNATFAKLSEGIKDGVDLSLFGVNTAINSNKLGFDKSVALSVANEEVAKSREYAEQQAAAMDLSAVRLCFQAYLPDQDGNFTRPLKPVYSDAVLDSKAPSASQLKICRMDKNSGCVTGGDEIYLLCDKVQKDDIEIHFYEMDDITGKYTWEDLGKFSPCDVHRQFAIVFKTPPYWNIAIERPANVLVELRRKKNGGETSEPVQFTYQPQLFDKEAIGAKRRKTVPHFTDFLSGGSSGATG
# Assay: protein-binding microarray (PBM)
# Settings: PBM: ~300 nM protein, 6 mM HEPES pH 7.8, 80 mM KCl, 0.5 mM EDTA, 0.5 mM EGTA, 6% glycerol, 35 ng/ul poly-dIdC, 1% milk, 1 h, room temperature; high values mean tight binding; double strand, one strand shown
row,Sequence,binding signal [z-score]
1,CCGATTAACATCAGGGATTTCCATGATGTTAATCGGGTCTTGATTCGCTTGACGCTGCTG,3.8
2,CCGATTAACATCAACGTCCCCCCTGATGTTAATCGGGTCTTGATTCGCTTGACGCTGCTG,3.81
3,CCGATTAACATCAAAGAGTCCCCTGATGTTAATCGGGTCTTGATTCGCTTGACGCTGCTG,6.17
4,CCGATTAACATCAGGGGGGTATATGATGTTAATCGGGTCTTGATTCGCTTGACGCTGCTG,2.99
5,CCGATTAACATCAATATCCCCCATGATGTTAATCGGGTCTTGATTCGCTTGACGCTGCTG,4.94
6,CCGATTAACATCATATTTCCCCATGATGTTAATCGGGTCTTGATTCGCTTGACGCTGCTG,7.45
7,CCGATTAACATCAAAAAAGTCCCTGATGTTAATCGGGTCTTGATTCGCTTGACGCTGCTG,11.6
8,CCGATTAACATCAAGGGGGGTGGTGATGTTAATCGGGTCTTGATTCGCTTGACGCTGCTG,3.67
9,CCGATTAACATCACCCCATCTCGTGATGTTAATCGGGTCTTGATTCGCTTGACGCTGCTG,0.327
10,CCGATTAACATCAAACAAACCCCTGATGTTAATCGGGTCTTGATTCGCTTGACGCTGCTG,3.42
11,CCGATTAACATCAGAAATCCCAATGATGTTAATCGGGTCTTGATTCGCTTGACGCTGCTG,2.13
12,CCGATTAACATCAAACCCCCCCCTGATGTTAATCGGGTCTTGATTCGCTTGACGCTGCTG,5.16
13,CCGATTAACATCAAGGGTGGGAATGATGTTAATCGGGTCTTGATTCGCTTGACGCTGCTG,1.84
14,CCGATTAACATCAAGATTTCCCATGATGTTAATCGGGTCTTGATTCGCTTGACGCTGCTG,4.42
15,CCGATTAACATCAGGGGGTCTACTGATGTTAATCGGGTCTTGATTCGCTTGACGCTGCTG,2.44
16,CCGATTAACATCAAAAAATTCCCTGATGTTAATCGGGTCTTGATTCGCTTGACGCTGCTG,10.3
17,CCGATTAACATCAAAGTCCCGGGTGATGTTAATCGGGTCTTGATTCGCTTGACGCTGCTG,3.61
18,CCGATTAACATCAAGGGGGGTTATGATGTTAATCGGGTCTTGATTCGCTTGACGCTGCTG,4.63

# Biological target: T2, GST-Dm-Relish (UniProt Q94527)
# T2 sequence: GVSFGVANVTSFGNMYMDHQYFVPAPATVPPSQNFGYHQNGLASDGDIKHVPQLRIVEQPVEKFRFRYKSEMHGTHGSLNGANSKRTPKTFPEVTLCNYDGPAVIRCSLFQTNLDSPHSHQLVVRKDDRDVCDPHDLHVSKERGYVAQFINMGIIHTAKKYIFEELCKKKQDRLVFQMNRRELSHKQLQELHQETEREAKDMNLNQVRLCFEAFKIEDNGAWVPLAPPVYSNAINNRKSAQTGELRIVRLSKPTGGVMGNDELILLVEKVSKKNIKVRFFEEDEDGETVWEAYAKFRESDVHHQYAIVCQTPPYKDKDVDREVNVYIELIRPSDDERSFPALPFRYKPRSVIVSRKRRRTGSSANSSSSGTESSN
# Assay: protein-binding microarray (PBM)
# Settings: PBM: ~300 nM protein, 6 mM HEPES pH 7.8, 80 mM KCl, 0.5 mM EDTA, 0.5 mM EGTA, 6% glycerol, 35 ng/ul poly-dIdC, 1% milk, 1 h, room temperature; high values mean tight binding; double strand, one strand shown
row,Sequence,binding signal [z-score]
1,CCGATTAACATCAGCATTCCCCCTGATGTTAATCGGGTCTTGATTCGCTTGACGCTGCTG,4.53
2,CCGATTAACATCAATTTGGGAAATGATGTTAATCGGGTCTTGATTCGCTTGACGCTGCTG,0.485
3,CCGATTAACATCAGAGATTTCCCTGATGTTAATCGGGTCTTGATTCGCTTGACGCTGCTG,2.1
4,CCGATTAACATCACCTTCTTTACTGATGTTAATCGGGTCTTGATTCGCTTGACGCTGCTG,0.459
5,CCGATTAACATCATTGGGAAAAATGATGTTAATCGGGTCTTGATTCGCTTGACGCTGCTG,0.862
6,CCGATTAACATCATATTGGGAAATGATGTTAATCGGGTCTTGATTCGCTTGACGCTGCTG,0.861
7,CCGATTAACATCAGGCGATCCCCTGATGTTAATCGGGTCTTGATTCGCTTGACGCTGCTG,6.53
8,CCGATTAACATCATAAATTCCCATGATGTTAATCGGGTCTTGATTCGCTTGACGCTGCTG,5.06
9,CCGATTAACATCAGGGGGTTGACTGATGTTAATCGGGTCTTGATTCGCTTGACGCTGCTG,4.51
10,CCGATTAACATCAGGGAGTCCCCTGATGTTAATCGGGTCTTGATTCGCTTGACGCTGCTG,10.7
11,CCGATTAACATCAGGGAAAACACTGATGTTAATCGGGTCTTGATTCGCTTGACGCTGCTG,5.1
12,CCGATTAACATCAGAAAACCCCCTGATGTTAATCGGGTCTTGATTCGCTTGACGCTGCTG,10
13,CCGATTAACATCAGGGAAACTCATGATGTTAATCGGGTCTTGATTCGCTTGACGCTGCTG,1.31
14,CCGATTAACATCAGACTGGGAAATGATGTTAATCGGGTCTTGATTCGCTTGACGCTGCTG,0.367
15,CCGATTAACATCAAAGCACCCCCTGATGTTAATCGGGTCTTGATTCGCTTGACGCTGCTG,3.26
16,CCGATTAACATCAATGCACCCCCTGATGTTAATCGGGTCTTGATTCGCTTGACGCTGCTG,3.29
17,CCGATTAACATCAAAATTCCCACTGATGTTAATCGGGTCTTGATTCGCTTGACGCTGCTG,5.55
18,CCGATTAACATCACAAAATTCCCTGATGTTAATCGGGTCTTGATTCGCTTGACGCTGCTG,6.16
19,CCGATTAACATCAAAAATCCCACTGATGTTAATCGGGTCTTGATTCGCTTGACGCTGCTG,7.7
20,CCGATTAACATCACCCAATTCCCTGATGTTAATCGGGTCTTGATTCGCTTGACGCTGCTG,1.62
21,CCGATTAACATCACAAAACTCCCTGATGTTAATCGGGTCTTGATTCGCTTGACGCTGCTG,5.41
22,CCGATTAACATCAGGGAACTTTATGATGTTAATCGGGTCTTGATTCGCTTGACGCTGCTG,4.83

# Biological target: T3, GST-Aq-NF-kB (UniProt A9Y5G7)
# T3 sequence: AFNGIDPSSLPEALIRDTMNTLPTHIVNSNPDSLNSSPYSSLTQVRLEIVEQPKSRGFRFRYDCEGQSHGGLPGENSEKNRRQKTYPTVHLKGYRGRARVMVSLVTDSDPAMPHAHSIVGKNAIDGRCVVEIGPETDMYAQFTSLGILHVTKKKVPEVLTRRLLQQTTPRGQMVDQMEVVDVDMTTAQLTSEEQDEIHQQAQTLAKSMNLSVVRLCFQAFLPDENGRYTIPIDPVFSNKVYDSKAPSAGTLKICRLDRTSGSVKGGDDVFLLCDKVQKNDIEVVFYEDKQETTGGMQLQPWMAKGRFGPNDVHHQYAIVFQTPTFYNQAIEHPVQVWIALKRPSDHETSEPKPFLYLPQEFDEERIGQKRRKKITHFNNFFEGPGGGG
# Assay: protein-binding microarray (PBM)
# Settings: PBM: ~300 nM protein, 6 mM HEPES pH 7.8, 80 mM KCl, 0.5 mM EDTA, 0.5 mM EGTA, 6% glycerol, 35 ng/ul poly-dIdC, 1% milk, 1 h, room temperature; Ap Aiptasia and Nv Nematostella (sea anemones) / Co Capsaspora / Aq Amphimedon (sponge) / Dm Drosophila / Hu human; RHD is the Rel homology domain; high values mean tight binding; most listed sequences are background and not binding sites; double strand, one strand shown
row,Sequence,binding signal [z-score]
1,CCGATTAACATCAGCATTCCCCCTGATGTTAATCGGGTCTTGATTCGCTTGACGCTGCTG,5.57
2,CCGATTAACATCAATTTGGGAAATGATGTTAATCGGGTCTTGATTCGCTTGACGCTGCTG,0.788
3,CCGATTAACATCAGAGATTTCCCTGATGTTAATCGGGTCTTGATTCGCTTGACGCTGCTG,5.48
4,CCGATTAACATCAGGGATTTCCATGATGTTAATCGGGTCTTGATTCGCTTGACGCTGCTG,5.39
5,CCGATTAACATCACCTTCTTTACTGATGTTAATCGGGTCTTGATTCGCTTGACGCTGCTG,0.584
6,CCGATTAACATCATTGGGAAAAATGATGTTAATCGGGTCTTGATTCGCTTGACGCTGCTG,1.92
7,CCGATTAACATCAACGTCCCCCCTGATGTTAATCGGGTCTTGATTCGCTTGACGCTGCTG,4.66
8,CCGATTAACATCAAAGAGTCCCCTGATGTTAATCGGGTCTTGATTCGCTTGACGCTGCTG,5.8
9,CCGATTAACATCAGGGGGGTATATGATGTTAATCGGGTCTTGATTCGCTTGACGCTGCTG,4.1
10,CCGATTAACATCAATATCCCCCATGATGTTAATCGGGTCTTGATTCGCTTGACGCTGCTG,4.55
11,CCGATTAACATCATATTGGGAAATGATGTTAATCGGGTCTTGATTCGCTTGACGCTGCTG,0.882
12,CCGATTAACATCAGGCGATCCCCTGATGTTAATCGGGTCTTGATTCGCTTGACGCTGCTG,5.06
13,CCGATTAACATCATATTTCCCCATGATGTTAATCGGGTCTTGATTCGCTTGACGCTGCTG,5.08
14,CCGATTAACATCAAAAAAGTCCCTGATGTTAATCGGGTCTTGATTCGCTTGACGCTGCTG,8.92
15,CCGATTAACATCAAGGGGGGTGGTGATGTTAATCGGGTCTTGATTCGCTTGACGCTGCTG,4.15
16,CCGATTAACATCACCCCATCTCGTGATGTTAATCGGGTCTTGATTCGCTTGACGCTGCTG,0.862
17,CCGATTAACATCAAACAAACCCCTGATGTTAATCGGGTCTTGATTCGCTTGACGCTGCTG,3.95
18,CCGATTAACATCATAAATTCCCATGATGTTAATCGGGTCTTGATTCGCTTGACGCTGCTG,3.71
19,CCGATTAACATCAGAAATCCCAATGATGTTAATCGGGTCTTGATTCGCTTGACGCTGCTG,2.14
20,CCGATTAACATCAAACCCCCCCCTGATGTTAATCGGGTCTTGATTCGCTTGACGCTGCTG,5.35

row,Sequence,binding signal [z-score]
1,CCGATTAACATCAGGGGGTTGACTGATGTTAATCGGGTCTTGATTCGCTTGACGCTGCTG,3.95
2,CCGATTAACATCAGGGAGTCCCCTGATGTTAATCGGGTCTTGATTCGCTTGACGCTGCTG,9.35
3,CCGATTAACATCAAGGGTGGGAATGATGTTAATCGGGTCTTGATTCGCTTGACGCTGCTG,2.63
4,CCGATTAACATCAGGGAAAACACTGATGTTAATCGGGTCTTGATTCGCTTGACGCTGCTG,6.06
5,CCGATTAACATCAGAAAACCCCCTGATGTTAATCGGGTCTTGATTCGCTTGACGCTGCTG,8.84
6,CCGATTAACATCAGGGAAACTCATGATGTTAATCGGGTCTTGATTCGCTTGACGCTGCTG,4.27
7,CCGATTAACATCAGACTGGGAAATGATGTTAATCGGGTCTTGATTCGCTTGACGCTGCTG,1.18
8,CCGATTAACATCAAAGCACCCCCTGATGTTAATCGGGTCTTGATTCGCTTGACGCTGCTG,4.36
9,CCGATTAACATCAATGCACCCCCTGATGTTAATCGGGTCTTGATTCGCTTGACGCTGCTG,3.4
10,CCGATTAACATCAAAATTCCCACTGATGTTAATCGGGTCTTGATTCGCTTGACGCTGCTG,4.54
11,CCGATTAACATCACAAAATTCCCTGATGTTAATCGGGTCTTGATTCGCTTGACGCTGCTG,6.82
12,CCGATTAACATCAAGATTTCCCATGATGTTAATCGGGTCTTGATTCGCTTGACGCTGCTG,3.35
13,CCGATTAACATCAAAAATCCCACTGATGTTAATCGGGTCTTGATTCGCTTGACGCTGCTG,3.87
14,CCGATTAACATCACCCAATTCCCTGATGTTAATCGGGTCTTGATTCGCTTGACGCTGCTG,2.94
15,CCGATTAACATCAGGGGGTCTACTGATGTTAATCGGGTCTTGATTCGCTTGACGCTGCTG,4.4
16,CCGATTAACATCAAAAAATTCCCTGATGTTAATCGGGTCTTGATTCGCTTGACGCTGCTG,8.5
17,CCGATTAACATCACAAAACTCCCTGATGTTAATCGGGTCTTGATTCGCTTGACGCTGCTG,6.32
18,CCGATTAACATCAAAGTCCCGGGTGATGTTAATCGGGTCTTGATTCGCTTGACGCTGCTG,3.49
19,CCGATTAACATCAGGGAACTTTATGATGTTAATCGGGTCTTGATTCGCTTGACGCTGCTG,5.17
20,CCGATTAACATCAAGGGGGGTTATGATGTTAATCGGGTCTTGATTCGCTTGACGCTGCTG,5.77
